The structures appear in SMILES notation. Among all 310,000 compounds or so, about 14,000 (4.5%) showed an effect of 50% or more. The effect is printed as a negative number. The list shows a part of the results.
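Further: peak tail current of the secondary pulse compared with the same well before compound.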

This experiment deals with human ether-à-go-go-related gene (hERG) potassium channel (human, UniProt Q12809). Description: primary screen, population patch clamp on CHO cells stably expressing hERG.
Sequence of human ether-à-go-go-related gene (hERG) potassium channel (Q12809 whole entry, looked up): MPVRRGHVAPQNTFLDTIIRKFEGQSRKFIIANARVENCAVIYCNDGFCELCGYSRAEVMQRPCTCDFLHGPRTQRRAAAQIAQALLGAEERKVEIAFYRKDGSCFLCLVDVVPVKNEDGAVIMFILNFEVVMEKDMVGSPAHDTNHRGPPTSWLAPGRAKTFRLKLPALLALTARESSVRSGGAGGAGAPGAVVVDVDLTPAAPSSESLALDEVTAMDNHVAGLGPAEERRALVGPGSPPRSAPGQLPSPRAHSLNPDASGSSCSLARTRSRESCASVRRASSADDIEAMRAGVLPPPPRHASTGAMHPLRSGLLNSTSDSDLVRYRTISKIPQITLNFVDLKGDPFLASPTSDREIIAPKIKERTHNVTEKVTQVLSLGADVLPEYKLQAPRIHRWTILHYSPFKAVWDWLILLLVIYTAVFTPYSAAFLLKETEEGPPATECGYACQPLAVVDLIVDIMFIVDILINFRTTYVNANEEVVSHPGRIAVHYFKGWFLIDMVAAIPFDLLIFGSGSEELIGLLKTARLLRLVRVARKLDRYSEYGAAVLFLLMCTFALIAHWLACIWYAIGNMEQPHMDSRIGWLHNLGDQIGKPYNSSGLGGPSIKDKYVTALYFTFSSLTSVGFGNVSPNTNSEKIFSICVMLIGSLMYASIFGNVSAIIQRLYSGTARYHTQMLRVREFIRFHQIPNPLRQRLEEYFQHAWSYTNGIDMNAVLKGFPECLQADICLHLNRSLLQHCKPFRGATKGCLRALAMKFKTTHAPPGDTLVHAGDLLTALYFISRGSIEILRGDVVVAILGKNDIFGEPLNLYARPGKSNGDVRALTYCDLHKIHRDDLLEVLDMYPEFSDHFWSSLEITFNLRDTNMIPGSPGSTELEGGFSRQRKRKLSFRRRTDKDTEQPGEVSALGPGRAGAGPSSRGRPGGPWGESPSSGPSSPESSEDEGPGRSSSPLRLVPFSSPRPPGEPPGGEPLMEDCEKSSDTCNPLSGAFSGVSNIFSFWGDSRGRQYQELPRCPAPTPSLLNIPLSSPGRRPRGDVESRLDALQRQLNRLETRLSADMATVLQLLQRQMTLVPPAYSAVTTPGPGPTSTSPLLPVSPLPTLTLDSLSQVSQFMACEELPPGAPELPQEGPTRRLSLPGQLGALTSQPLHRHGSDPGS
As to `CC(C)N(CC#CC(O)(c1ccccc1)c1ccccc1)CCO`, the “hERG current change (%, negative = inhibition) at 10uM” value is reported as -28.1%.
As for `COc1cc2c(cc1NC(=O)Cc1ccc(C)cc1)oc1ccccc12`, the figure is -0.676%; as for `COc1ccc(-c2nn(C)c(=O)c3ccccc23)cc1NC(=O)Cn1nc(C)c2ccccc2c1=O`, -57.5%; as for `Cc1ccc2nc(-c3ccncc3)cc(C(=O)Nc3ccc(F)cc3C)c2c1`, -25%.
As for `CCn1ncc(Br)c1C(=O)Nc1sc2c(c1C(=O)OC)CCC2`, the figure is -40.8%; as for `COc1ccc(CCNC(=O)CC(NS(=O)(=O)c2ccc(NC(C)=O)cc2)C(C)C)cc1OC` (stereo not drawn), 17.3%.
Take `O=C(O)c1cc2c(cc1NC(=O)c1c(F)cccc1F)OCCCO2`: the “hERG current change (%, negative = inhibition) at 10uM” value stood at 11.3%.
In the case of `CC(CC(=O)Nc1nc2ccccc2[nH]1)n1ccnc1` (stereo not drawn), the “hERG current change (%, negative = inhibition) at 10uM” value was -16.7%.
As for `O=C(c1cccc(S(=O)(=O)Nc2ccc(Br)cc2)c1)N1CCCC1`, the figure is -40.1%; as for `COc1ccccc1-c1ccc(Nc2cccc(C(F)(F)F)c2)nn1`, 15.4%; as for `CN(C)c1cccc2c(S(=O)(=O)N3CCCC3)cccc12`, 19.8%.
For the compound `CCOc1ccc2[nH]cc(S(=O)(=O)c3ccc(F)cc3)c(=O)c2c1`, the “hERG current change (%, negative = inhibition) at 10uM” value was -4.38%.
Regarding `CCOc1ccc(/C=C2\SC(=O)N(CCNC(=O)C3COc4ccccc4O3)C2=O)cc1OC` (stereo not drawn), the “hERG current change (%, negative = inhibition) at 10uM” value is listed as -20.7%.
The same measure for `COc1cc(/C=N/NC(=O)Cc2nnc(N)s2)cc(OC)c1OC`: 22.5%; for `CCN1CCN(C(=S)Nc2cccc(Cl)c2)CC1`: -8.01%; for `O=c1[nH][nH]cc1C=Nc1ccc(Cl)cc1`: 11.1%.
The same measure for `O=c1c2ccccc2c(C=Nc2cccc(S(=O)(=O)NCc3ccco3)c2)c(O)n1-c1ccc(Cl)cn1`: -4.94%; for `Cc1ccc(-n2ncc3c(NNC(=O)c4cccs4)ncnc32)cc1`: 13.3%; for `COc1ccc(-n2c(SC)nc3ccccc3c2=O)cc1`: -2.58%.
As for `CCn1c(CCNC(=O)c2ccccc2Cl)n[nH]c1=S`, the figure is 12%; as for `CCCn1ncc(C(=O)NC2CCCN(Cc3ccc(Cl)cc3)C2)c1C` (stereo not drawn), -44.4%; as for `Cc1ccc(-c2noc(CSc3nnc(-c4ccncc4)n3-c3ccc(C)cc3)n2)cc1`, -42.9%.
Turning to `COc1ccc(C(=O)NNC(=O)Cc2ccc(-c3ccccc3)cc2)cc1OC`, the “hERG current change (%, negative = inhibition) at 10uM” value is 2.14%.
Consider `O=C1C2CCCN2C(=O)N1CCN1CCN(CCO)CC1` (stereo not drawn), for which the “hERG current change (%, negative = inhibition) at 10uM” value is -5.52%.

The record behind these values is article PMC4336329 (PLoS ONE, 2015).
